Laboratory results reported in PubChem BioAssay AID1508623 (National Center for Advancing Translational Sciences (NCATS), 2021).
In all, about 48,000 compounds went through this assay and about 450 (0.94%) were called active. About 19% were inconclusive and are not listed. Calls come from the whole dose curve; as a rule, active = well fitted inhibition curve with a large enough effect; inconclusive = small, poorly fitted or top-dose-only effect; inactive = no such curve, though single readings can be large or run the other way. Some of the results follow.

Test: Primary qHTS for Identification of Small Molecule Inhibitors of Huntingtin Promoter Activity; note: nearly all actives have a fitted effect of over 50% in size
Settings: HEK293 HTT promoter firefly luciferase reporter (activity 0% = vehicle and -100% = no light), 24 h; series mostly up to 57.5 µM; activity change, negative = inhibition: at the top concentration
Summary of the method: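 Luminescence was read after Dual-Glo reagent and a 10 min room-temperature incubation. Values were normalized to vehicle (0% activity) and zero RLU (-100% activity). Reporter HEK293 cells had been exposed to compounds (up to 57.5 uM final) for 24 h.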

Activity change, negative = inhibition, inactive:
COc1ccccc1NC(=O)c1sc2nc(-c3cc4ccccc4oc3=O)[nH]c(=O)c2c1C 2.86%
Cc1cc(C)cc(NC(=O)c2cccc(N3CCCS3(=O)=O)c2)c1 28.5%
Cc1cccc(C(=O)Nc2nnc(SCc3cc(=O)n4cccc(C)c4n3)s2)c1 5.98%
COc1ccc(C(=O)N/C(=C\c2cn(S(=O)(=O)N(C)C)c3ccccc23)C(=O)NCCCn2ccnc2)cc1 -2.52%
O=C(CSc1nnc(-c2ccccc2F)o1)N1CCc2ccccc21 7.75%
Cc1cccc(NC(=O)c2c(NC(=O)c3ccco3)sc3c2CCC(C(C)(C)C)C3)c1 (stereo not drawn) -10.7%
C#Cc1cccc(Nc2ncnc3cc(OCCOC)c(OCCOC)cc23)c1 -23.5%
CN(Cc1ccccc1)C(=O)C1CCN(Cc2cc3ccccc3n2Cc2ccccc2)CC1 -14.8%
COc1cc(OC)cc(C(=O)Nc2ccc(S(=O)(=O)Nc3onc(C)c3C)cc2)c1 -1.67%
CCOC(=O)c1c(C)[nH]c(CCC(=O)Nc2cc(C)cc(C)c2)c1C -25.1%
Cc1ccc(-n2c3c(cc(-c4nc(-c5ccc(Cl)cc5)cs4)c2=O)C(=O)CC(C)(C)C3)cc1 -9.02%
COc1cccc(CNC(=O)CN2C(=O)CCn3nc(-c4cn(C)c5ccccc45)cc32)c1OC -0.541%
CCOC(=O)c1cccc(NC(=O)c2cc(-c3ccc(Cl)s3)nc3ccccc23)c1 0%
O=C(NCCc1ccccc1)c1ccc(CSc2nc3ccncc3n2Cc2ccccc2)cc1 9.75%
CCN(CC)CCCNC(=O)c1cn(C)c2ccc(S(=O)(=O)N3CCOCC3)cc2c1=O -10.4% [at 11.5 µM]
COc1ccc(NC(=O)Cn2ncc3c([nH]c4ccccc43)c2=O)cc1Cl 5.28%
CCC(C(=O)NCc1ccccc1)n1ncn2c(cc3occc32)c1=O (stereo not drawn) -8.43%
Cc1cccc(C(=O)Nc2cccc(C(=O)OCc3cc(=O)n4ccsc4n3)c2)c1 -0.114%
COc1ccc(Br)cc1CNC(=O)CN1C(=O)CSc2ccc(S(=O)(=O)N3CCOCC3)cc21 -11.3%
Cc1ccc(NC(=O)c2cc3c(=O)n(Cc4cccnc4)ccc3nc2C)cc1F 6.63%
COc1ccc(NC(=O)CNS(=O)(=O)c2cccs2)c(OC)c1 4.16%
COc1ccc(OC)c(CNC(=O)c2cccc(NC(=O)N3CCSc4ncccc43)c2)c1 -27.5%
NS(=O)(=O)c1cc2c(cc1Cl)NC=NS2(=O)=O
O=c1c2oc3ccccc3c2n(Cc2cccc(C(F)(F)F)c2)c(=O)n1Cc1ccc2c(c1)OCO2 -13.7%
CCOc1ccccc1N(C)C(=O)NCc1noc2ccccc12 -11.2%
CCn1cc(C(=O)NC(C)c2ccccc2)c(=O)c2cc(S(=O)(=O)N3CCc4ccccc4C3)ccc21 (stereo not drawn) -23.1%
Cc1ccc(-n2nc(C)c3nc(CCC(=O)Nc4ccc(F)cc4)c(=O)n(C)c32)cc1 3.41%
Cc1ccc(NC(=O)Cn2cc(S(=O)(=O)N3CCCC3)c(S(=O)(=O)N3CCCC3)c2)c(C)c1 17.9% [at 11.5 µM]
CC(C)Nc1cccnc1N1CCN(C(=O)c2cc3cc(NS(C)(=O)=O)ccc3[nH]2)CC1 -4.35%
O=C(NCCc1ccc(Cl)cc1)c1cccn1-c1nnc(N2CCCC2)s1 -17.1%
COc1ccc(C(=O)c2cn(CC(=O)Nc3ccc4c(c3)OCO4)c3ccc(OC)cc3c2=O)cc1 -16.5%
CCCn1cc(S(=O)(=O)c2ccccc2)c(=O)c2cc(F)c(N3CCCC3)cc21 -9.29%
CCc1ccccc1NC(=O)c1cc(S(=O)(=O)NC2CCCC2)ccc1F -25.2%
Nc1ccc(S(=O)(=O)Nc2ccccc2)cc1 -6.64%
COc1ccc(-n2nc(C(=O)N3CCN(c4cccc(C)c4)C(C)C3)c3c4ccccc4n(C)c3c2=O)cc1 (stereo not drawn) -4.05%
CCCn1ccc2c(OCC(=O)Nc3ccc(F)cc3F)cccc2c1=O -25.1%
Cc1cccc(NC(=O)CSc2nc3c([nH]c4ccccc43)c(=O)n2-c2ccc(F)cc2)c1C -24.8%
Cc1ccc(C(=O)N/C(=C\c2cn(S(=O)(=O)N(C)C)c3ccccc23)C(=O)NCCCn2ccnc2)cc1 0.187%
COc1ccc(CNC(=O)CN2C(=O)COc3ccc(S(=O)(=O)N4CCCCCC4)cc32)cc1 -13.9%
COc1ccc(-n2c(SCC(=O)NCc3ccccc3)nc3ccsc3c2=O)cc1 -11.9%
COC(=O)c1sccc1S(=O)(=O)N(CC(=O)Nc1cc(C)cc(C)c1)c1ccc(Cl)cc1 -0.947%
COc1ccc(C2(C#N)CCC(C(=O)O)CC2)cc1OC1CCCC1 (stereo not drawn) 32.7%
COc1ccc(CNC(=O)c2ccc(CNS(=O)(=O)c3ccc(OC)cc3)cc2)cc1 -6.17%
COc1cccc(NC(=O)c2ccc3c(=O)n4nc(Nc5ccccc5OC)sc4nc3c2)c1 -7.92%
COCCCNC(=O)c1ccc(Cn2c(=O)c3ccccc3n(Cc3ccc(C)cc3)c2=O)cc1 -10.4%
COCCOC(=O)Cn1nnc2sc(-c3ccccc3)cc2c1=O -6.49%
Cc1nn(S(=O)(=O)c2ccc(C(C)C)cc2)c(C)c1S(=O)(=O)N1CCCCC1 -8.93%
Cc1ccc2c(c1)-c1c(cnn1CC(=O)N1CCN(c3cccc(C(F)(F)F)c3)CC1)CO2 -19.2%
CC(=O)OC[C@@H]1O[C@@H](n2ccc(=O)[nH]c2=O)[C@H](OC(C)=O)[C@H]1OC(C)=O -20.8%
CCc1cccc(C)c1NS(=O)(=O)c1ccc2c(c1)NC(=O)C(C)C(=O)N2 (stereo not drawn) -15.3%
CCOc1ccc(-n2c(=O)c3c4c(sc3n(CC(=O)NCCCOC)c2=O)CCCCC4)cc1 -12.9%
CCN(CC)c1ccc2cc(-c3nc(-c4ccccc4)no3)c(=O)oc2c1 20.5%
Cc1ccc(CNC(=O)c2c(-c3ccc(F)cc3F)noc2C)o1 -10.8%
Cc1cc(C)c(NC(=O)Cn2nnc(C(=O)NCc3cccs3)c2N)c(C)c1 -14.3%
COc1ccc(-c2cn3nc(N4CCCC(C(=O)Nc5cc(Cl)ccc5OC)C4)sc3n2)cc1 (stereo not drawn) -3.53%
COc1cc(NC(=O)Cn2c(=O)n(-c3ccccc3)c(=O)c3c4c(sc32)CCCC4)cc(OC)c1 -10.4%
COc1ccc(CC(=O)NCC(c2ccc(N(C)C)cc2)N2CCOCC2)cc1OC (stereo not drawn) -5.2%
CCOC(=O)c1cc2c(=O)n3ccccc3nc2n(Cc2ccco2)c1=NC(=O)c1ccc(OC)cc1 -3.59%
CSc1ccc(CNC(=O)c2ccc3c(c2)N(C)C(=O)C2CCCCN32)cc1 (stereo not drawn) 21.4%
CC(C)COc1ccc(C(=O)Nc2scc(-c3ccc(Br)cc3)c2C(=O)OC(C)C)cc1 -17.6%
Cc1nc2cccnc2n1C1CCN(C(=O)Nc2ccccc2C(F)(F)F)CC1 9.52%
COc1ccc(CCN(C)CCCN2CCc3cc(OC)c(OC)cc3CC2=O)cc1OC -0.968%
CNS(=O)(=O)c1cn(CC(=O)N2CCN(c3ccc(Cl)cc3)CC2)cc1S(=O)(=O)NC -0.215%
COc1ccc(C(=O)COC(=O)CCCC(=O)Nc2ccc(C(C)=O)cc2)cc1 65.9%
CCOc1ccc(-n2nc(CO)c(C(=O)NCC(c3ccccc3)c3ccccc3)n2)cc1 -0.744%
O=c1ccc2cc(S(=O)(=O)NCc3ccc(Cl)cc3)ccc2[nH]1 -18.3%
O=C(NCc1ccccc1)c1cccc(N2CCCS2(=O)=O)c1 0.875%
O=C(CSc1nccn1Cc1ccc(F)cc1)NCc1ccccc1 -11.3%
COc1ccc(-n2ncc(C(=O)NCc3ccc4c(c3)OCO4)c2C2CCN(C(=O)OC(C)(C)C)CC2)cc1 -19.8%
Cc1ccccc1CNC(=O)Cc1csc2ccccc12 44.2%
CCN(CC)C(=O)c1sc2c(c1C)c(=O)n(Cc1ccccc1)c(=O)n2CC(=O)Nc1ccc(OC)cc1 -19.8%
O=C(OCC(O)CO)c1ccccc1Nc1ccnc2cc(Cl)ccc12 (stereo not drawn) -4.96%
COC(=O)c1ccc(-n2nnc(-c3nsc(NC(=O)c4ccc(Cl)cc4)n3)c2C)cc1 -3.63%
O=c1c(NCCc2ccc(Cl)cc2)nccn1-c1ccccc1 -29.5%
COc1ccccc1NC(=O)CCNS(=O)(=O)c1ccc2c(c1)CCN2C(=O)C1CC1 -15.3% [at 11.5 µM]
COc1ccc(OC)c(CCNC(=O)c2cc3cccc4c3n2CCS4)c1 -24.1%
Cc1cc2n(n1)CCCN2C(=O)Nc1ccc(C)c(Cl)c1 -20.8%
CCN(Cc1ccccc1)C(=O)CCS(=O)(=O)c1cc(Br)cc2c1N(C(=O)C1CC1)CC2 -22.7%
CN(c1ccccc1)S(=O)(=O)c1nnc(NC(=O)c2cccs2)s1 -2.6%
CCOc1ccccc1NC(=O)Cn1c(=O)n(CCCCC(=O)NCCCOC)c(=O)c2ccccc21 -11.4%
c1ccc2[nH]ccc2c1 -10.5%
Cc1ccc2[nH]c3c(=O)n(CC(=O)NCCCN4CCN(c5ccc(F)cc5)CC4)ncc3c2c1 6.12%
CCc1ccccc1N(C)C(=O)c1cc2c(Cl)nc3ccc(C)cc3c2s1 -4.68%
CCc1ccc(NC(=O)Cn2nnc(C(=O)NCCc3ccccc3)c2N)cc1 -8.99%
N#Cc1ccccc1Cn1c(=O)n(-c2ccccc2)c(=O)c2c3c(sc21)CCC3 10.5%
O=C(NCc1cccc(F)c1)C1CCN(c2nn3cc(-c4ccc(F)cc4)nc3s2)CC1 0.346%
CC1CCN(S(=O)(=O)c2ccc3c(c2)oc(=O)n3CC(=O)N2CCCCC2)CC1 -30.4%
Cc1cccc(C)c1NC(=O)c1nc(SC(C)C)ncc1Cl -31.2%
O=C(Nc1ccc(O)c(-c2nc3ccccc3o2)c1)c1ccc(-c2cccc(Cl)c2)o1 -2.6%
COCCCNC(=O)C1CCN(C(=O)c2ccc(-n3ccc4ccccc43)s2)CC1 35.3%
Cc1cc(C)cc(N(CC(=O)Nc2ccc(C)cc2Cl)S(=O)(=O)c2c(C)[nH]c(=O)[nH]c2=O)c1 -26.3%
Cc1cc(O)c2c(c1)C(=O)c1cccc(O)c1C2=O -7.91%
COc1cccc(CNC(=O)CSc2nnc(C)c3c(C)n(-c4ccccc4)nc23)c1 -19.8%
